Data taken from the supplement of paper PMC4967469.
IC50 is the fitted dose that halves viability relative to control wells, and lower means more sensitive; fits outside the tested doses are given as limits. For AUC the same curve is integrated over the 256-fold range of doses and scaled to a fraction; values near 1 show little effect. For some of these results: An inferred top dose is not printed in the source and was worked back from the curve model.

How the values were obtained:
Assay in all cases: Viability of human cancer cell lines after 72 h of drug (GDSC screen)
BIX02189 = compound: CN(C)Cc1cccc(N=C(c2ccccc2)c2c(O)[nH]c3cc(C(=O)N(C)C)ccc23)c1 [BIX02189]; conditions: top dose 20 µM; top dose inferred
Description: (§1)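 Human cancer cell lines in 384-well plates, medium with 10% serum, drug for 72 h over a 256-fold dose range (nine 2-fold or five 4-fold steps up to the top dose). Adherent lines were fixed and stained with the nucleic acid dye Syto60, suspension lines read with resazurin; signal relative to control wells, capped at 0 and 100%. One two-parameter sigmoid per drug and line, fitted in a mixed model over all curves with the slope shared within a line.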

Dimethyloxalylglycine = compound: COC(=O)CNC(=O)C(=O)OC [Dimethyloxalylglycine]; conditions: top dose 4000 µM; top dose inferred
Description: as §1

17-AAG = compound: C=CCNC1=C2C[C@@H](C)C[C@H](OC)[C@H](O)[C@@H](C)/C=C(\C)[C@H](OC(N)=O)[C@@H](OC)/C=C\C=C(/C)C(=O)NC(=CC1=O)C2=O [17-AAG]; conditions: top dose 1 µM
Description: as §1

Vismodegib = compound: CS(=O)(=O)c1ccc(C(=O)Nc2ccc(Cl)c(-c3ccccn3)c2)c(Cl)c1 [Vismodegib]; conditions: top dose 10 µM; top dose inferred
Description: as §1

UNC1215 = compound: O=C(c1ccc(C(=O)N2CCC(N3CCCC3)CC2)c(Nc2ccccc2)c1)N1CCC(N2CCCC2)CC1 [UNC1215]; conditions: top dose 1 µM; top dose inferred
Description: as §1

VX-11e = compound: Cc1cnc(Nc2ccc(F)cc2Cl)nc1-c1c[nH]c(C(=O)N[C@H](CO)c2cccc(Cl)c2)c1 [VX-11e]; conditions: top dose 5.12 µM; top dose inferred
Description: as §1

BMX-IN-1 (QL-XII-61) = compound: C=CC(=O)Nc1cc(-n2c(=O)ccc3cnc4ccc(-c5ccc(NS(C)(=O)=O)cc5)cc4c32)ccc1C [BMX-IN-1 (QL-XII-61)]; conditions: top dose 10 µM; top dose inferred
Description: as §1

TG101348 = compound: Cc1cnc(Nc2ccc(OCCN3CCCC3)cc2)nc1Nc1cccc(S(=O)(=O)NC(C)(C)C)c1 [TG101348]; conditions: top dose 10.24 µM
Description: as §1

Doxorubicin = compound: COc1cccc2c1C(=O)c1c(O)c3c(c(O)c1C2=O)C[C@@](O)(C(=O)CO)C[C@@H]3O[C@H]1C[C@H](N)[C@H](O)[C@H](C)O1 [Doxorubicin]; conditions: top dose 1.024 µM
Description: as §1

CCT018159 = compound: CCc1cc(-c2n[nH]c(C)c2-c2ccc3c(c2)OCCO3)c(O)cc1O [CCT018159]; conditions: top dose 10 µM; top dose inferred
Description: as §1

OSI-027 = compound: COc1cccc2cc(-c3nc([C@H]4CC[C@H](C(=O)O)CC4)n4ncnc(N)c34)[nH]c12 [OSI-027]; conditions: top dose 20 µM
Description: as §1

Cell Line	AUC (BIX02189)	IC50 (BIX02189)	AUC (Dimethyloxalylglycine)	IC50 (Dimethyloxalylglycine)	AUC (17-AAG)	IC50 (17-AAG)	AUC (Vismodegib)	IC50 (Vismodegib)	AUC (UNC1215)	IC50 (UNC1215)	AUC (VX-11e)	IC50 (VX-11e)	AUC (BMX-IN-1 (QL-XII-61))	IC50 (BMX-IN-1 (QL-XII-61))	AUC (TG101348)	IC50 (TG101348)	AUC (Doxorubicin)	IC50 (Doxorubicin)	AUC (CCT018159)	IC50 (CCT018159)	AUC (OSI-027)	IC50 (OSI-027)
UACC-893 (breast, adherent)	0.977	> 20 µM	0.898	> 4000 µM	0.753	0.44 µM	0.976	> 10 µM	0.98	> 1 µM	0.93	> 5.12 µM	0.98	> 10 µM	0.944	> 10.2 µM	0.798	0.688 µM	0.943	> 10 µM	0.446	0.845 µM
SJRH30 (rhabdomyosarcoma, adherent)	0.986	> 20 µM	0.753	1370 µM	0.911	> 1 µM	0.986	> 10 µM	0.956	> 1 µM	0.986	> 5.12 µM	0.966	> 10 µM	0.706	2.5 µM	0.628	0.146 µM	0.9	> 10 µM	0.454	0.93 µM
HCC1419 (breast, adherent)	0.965	> 20 µM	0.877	> 4000 µM	0.654	0.201 µM	0.959	> 10 µM	0.98	> 1 µM	0.979	> 5.12 µM	0.967	> 10 µM	0.942	> 10.2 µM	0.814	0.881 µM	0.969	> 10 µM	0.596	2.56 µM
TE-9 (oesophagus, adherent)	0.987	> 20 µM	0.719	1070 µM	0.708	0.248 µM	0.977	> 10 µM	0.983	> 1 µM	0.977	> 5.12 µM	0.985	> 10 µM	0.987	> 10.2 µM	0.657	0.178 µM	0.856	8.56 µM	0.964	> 20 µM
EW-11 (Ewing sarcoma, adherent)	0.881	> 20 µM	0.693	1030 µM	0.976	> 1 µM	0.923	> 10 µM	0.974	> 1 µM	0.98	> 5.12 µM	0.978	> 10 µM	0.592	1.23 µM	0.727	0.346 µM	0.812	7.39 µM	0.21	0.132 µM
OVTOKO (ovary, adherent)	0.955	> 20 µM	0.48	217 µM	0.642	0.172 µM	0.963	> 10 µM	0.977	> 1 µM	0.947	> 5.12 µM	0.965	> 10 µM	0.784	5.66 µM	0.712	0.304 µM	0.874	> 10 µM	0.692	5.06 µM
SIMA (neuroblastoma, adherent)	0.915	> 20 µM	0.646	669 µM	0.985	> 1 µM	0.985	> 10 µM	0.984	> 1 µM	0.886	> 5.12 µM	0.983	> 10 µM	0.753	3.82 µM	0.774	0.456 µM	0.918	> 10 µM	0.715	5.57 µM
NCI-H2347 (lung adenocarcinoma, adherent)	0.944	> 20 µM	0.386	114 µM	0.639	0.166 µM	0.983	> 10 µM	0.977	> 1 µM	0.97	> 5.12 µM	0.911	> 10 µM	0.895	> 10.2 µM	0.623	0.15 µM	0.857	> 10 µM	0.668	4.08 µM
HuP-T3 (pancreas, adherent)	0.916	> 20 µM	0.586	452 µM	0.715	0.294 µM	0.981	> 10 µM	0.979	> 1 µM	0.942	> 5.12 µM	0.975	> 10 µM	0.827	8.2 µM	0.62	0.148 µM	0.901	> 10 µM	0.792	11.4 µM
NCI-H720 (lung carcinoid, suspension)	0.992	> 20 µM	0.958	> 4000 µM	0.779	0.373 µM	0.992	> 10 µM	0.991	> 1 µM	0.991	> 5.12 µM	0.991	> 10 µM	0.991	> 10.2 µM	0.96	> 1.02 µM	0.87	7.98 µM	0.991	> 20 µM
TGW (neuroblastoma, adherent)	0.967	> 20 µM	0.842	2240 µM	0.991	> 1 µM	0.97	> 10 µM	0.99	> 1 µM	0.989	> 5.12 µM	0.988	> 10 µM	0.861	6.74 µM	0.899	0.971 µM	0.928	> 10 µM	0.703	4.24 µM
D-542MG (glioma, adherent)	0.982	> 20 µM	0.554	364 µM	0.938	> 1 µM	0.984	> 10 µM	0.981	> 1 µM	0.982	> 5.12 µM	0.954	> 10 µM	0.93	> 10.2 µM	0.835	0.894 µM	0.964	> 10 µM	0.859	> 20 µM
BICR10 (head and neck, adherent)	0.985	> 20 µM	0.456	186 µM	0.661	0.188 µM	0.981	> 10 µM	0.983	> 1 µM	0.985	> 5.12 µM	0.958	> 10 µM	0.908	> 10.2 µM	0.929	> 1.02 µM	0.909	> 10 µM	0.964	> 20 µM
H2369 (mesothelioma, adherent)	0.972	> 20 µM	0.272	54.9 µM	0.557	0.0901 µM	0.987	> 10 µM	0.985	> 1 µM	0.978	> 5.12 µM	0.976	> 10 µM	0.954	> 10.2 µM	0.491	0.0605 µM	0.933	> 10 µM	0.915	> 20 µM
NCI-H841 (small cell lung carcinoma, adherent)	0.977	> 20 µM	0.565	377 µM	0.724	0.271 µM	0.957	> 10 µM	0.987	> 1 µM	0.985	> 5.12 µM	0.972	> 10 µM	0.932	> 10.2 µM	0.87	0.955 µM	0.953	> 10 µM	0.463	0.993 µM
HEC-1 (endometrium, adherent)	0.989	> 20 µM	0.724	1050 µM	0.485	0.057 µM	0.989	> 10 µM	0.988	> 1 µM	0.989	> 5.12 µM	0.986	> 10 µM	0.973	> 10.2 µM	0.664	0.18 µM	0.9	> 10 µM	0.944	> 20 µM
SLVL (B-cell lymphoma, suspension)	0.875	> 20 µM	0.876	> 4000 µM	0.891	> 1 µM	0.981	> 10 µM	0.98	> 1 µM	0.882	> 5.12 µM	0.939	> 10 µM	0.606	1.28 µM	0.537	0.0812 µM	0.964	> 10 µM	0.216	0.173 µM
TUR (B-cell lymphoma, suspension)	0.894	> 20 µM	0.437	–	0.494	0.0602 µM	0.965	> 10 µM	0.985	> 1 µM	0.893	> 5.12 µM	0.797	4.32 µM	0.555	0.891 µM	0.559	0.0914 µM	0.808	4.71 µM	0.216	0.201 µM
CAL-33 (head and neck, adherent)	0.946	> 20 µM	0.511	269 µM	0.884	> 1 µM	0.955	> 10 µM	0.985	> 1 µM	0.971	> 5.12 µM	0.947	> 10 µM	0.896	> 10.2 µM	0.456	0.0486 µM	0.803	4.96 µM	0.32	0.394 µM
NCI-H446 (small cell lung carcinoma, semi-adherent)	0.938	> 20 µM	0.642	638 µM	0.982	> 1 µM	0.96	> 10 µM	0.98	> 1 µM	0.985	> 5.12 µM	0.969	> 10 µM	0.655	1.79 µM	0.902	> 1.02 µM	0.958	> 10 µM	0.202	0.152 µM
Hs766T (pancreas, adherent)	0.984	> 20 µM	0.724	1350 µM	0.675	0.227 µM	0.971	> 10 µM	0.982	> 1 µM	0.983	> 5.12 µM	0.98	> 10 µM	0.972	> 10.2 µM	0.954	> 1.02 µM	0.973	> 10 µM	0.85	> 20 µM
ASH-3 (thyroid, adherent)	0.988	> 20 µM	0.718	1030 µM	0.816	0.555 µM	0.985	> 10 µM	0.987	> 1 µM	0.988	> 5.12 µM	0.982	> 10 µM	0.981	> 10.2 µM	0.394	0.0328 µM	0.851	7.68 µM	0.881	> 20 µM
TGBC1TKB (biliary tract, adherent)	0.989	> 20 µM	0.694	869 µM	0.479	0.0548 µM	0.985	> 10 µM	0.983	> 1 µM	0.988	> 5.12 µM	0.986	> 10 µM	0.987	> 10.2 µM	0.87	0.942 µM	0.966	> 10 µM	0.912	> 20 µM
